Assay results as given in the RNAGym collection of RNA variant scans (doi:10.1093/nar/gkz1192).
Read counts are not given, so values of variants with three or more changes are uncertain.

B1: CPEB3 Ribozyme (parent)
chain: UAACAGGGGGCCACAGCAGAAGCGUUCACGUCGCAGCCCCUGUCAGAUUCUGGUGAAUCUGCGAAUUCUGCUGUAUAUCUC

Variants of: B1
Experiment: self-cleavage, relative activity (ratio to wild type); higher = more cleavage; in vitro, sequencing
In short: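 Relative activity compares each variant's cleaved/total read fraction with that of the unmutated ribozyme. To get these fractions, barcoded CPEB3 ribozyme libraries from rounds of error-prone PCR were transcribed with T7 RNA polymerase for 5 hours at 37°C and then given 15 min of DNase I treatment before EDTA was added. The RNAs were reverse transcribed with template switching and sequenced on Illumina, and DNA sequencing linked barcodes to variants. A minimum of 5 reads applied, and three batches were averaged.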
With A5U A21G U74C the self-cleavage was 0.98.
Work on A5U A18G U25C C50U U54G yielded a self-cleavage of 0.05.
With A5U C12U A15U U26C U31C U66C A75U the self-cleavage was 0.3.
Variant A5U A18U C79G has a self-cleavage of 1.01.
Variant A5U G6A U25C U31C A65G A77G has a self-cleavage of 0.05.
With A5U G7A A18U U26C G53U the self-cleavage was 0.25.
With A5U A18U U26C A35U A45C C68G the self-cleavage was 0.14.
Variant A5U G9A A13G A20G U54A has a self-cleavage of 0.21.
For A5U G6U U41A U60C A65G, the self-cleavage was 0.07.
In the case of A5U C27U A56U U74C, the self-cleavage is reported as 0.21.
For A5U G22U U76C A77G, the self-cleavage was 0.28.
Variant A5U A15G A64G U67G has a self-cleavage of 0.66.
Work on A5U C11G U31C A75U yielded a self-cleavage of 0.7.
Variant A5U G8A C40G U54A A64G U66C has a self-cleavage of 0.04.
With A5U G7C A18G A20G U26C A28U U48C the self-cleavage was 0.3.
In the case of A5U G9A C11U G33U U78C, the self-cleavage is reported as 0.13.
For A5U A45G U54C G63A, the self-cleavage was 0.97.
In the case of A5U G6A U48A A64G A65G, the self-cleavage is reported as 0.31.
A5U A15G A47G U69C showed a self-cleavage of 0.15.
Work on A5U C17U A64U yielded a self-cleavage of 0.22.
For A5U A21U C37A A57G U67A, the self-cleavage was 0.22.
In the case of A5U C23G U26A C44A A64G, the self-cleavage is reported as 0.13.
Work on A5U G10C A20G U25C A47U yielded a self-cleavage of 0.37.
Variant A5U A21G U49C U66C has a self-cleavage of 0.27.
A5U A45G A56G U78A U80C gave a self-cleavage of 0.55.
Variant A5U C12U U49C U60C has a self-cleavage of 0.1.
Variant A5U A18G U58C G63A has a self-cleavage of 0.26.
For A5U A18G A35U A45G G73A, the self-cleavage was 0.41.
In the case of A5U A13U A21G, the self-cleavage is reported as 0.51.
A5U A18C C40U A77G gave a self-cleavage of 0.39.
For A5U A28G G36A, the self-cleavage was 0.3.
A5U A15U A35G A56U U60A A65G showed a self-cleavage of 0.56.
A5U G6A U31A A64G A65U U66C U78C showed a self-cleavage of 0.07.
Variant A5U A47U A64G U78A has a self-cleavage of 0.58.
Variant A5U A20U U43C U48C G55C U72A has a self-cleavage of 0.25.
With A5U G10C A13C U41C the self-cleavage was 0.61.
In the case of A5U C62A U80A, the self-cleavage is reported as 0.24.
A5U A15C A56C A57G U58C U69A showed a self-cleavage of 0.18.
Work on A5U A20G A47G C68A yielded a self-cleavage of 0.14.
Work on A5U A28U A75G yielded a self-cleavage of 0.76.
Work on A5U A13U U31A yielded a self-cleavage of 0.86.
A5U G8U A77G showed a self-cleavage of 0.21.
For A5U G7C A20G U26C A28U U31C U80A, the self-cleavage was 0.04.
Variant A5U A20U U51A has a self-cleavage of 0.49.
Variant A5U A21U U43A A65G U66C has a self-cleavage of 0.13.
A5U A21G A64U gave a self-cleavage of 0.08.
Work on A5U G7U G10A A15G U54A yielded a self-cleavage of 0.32.
Variant A5U A18G U31A has a self-cleavage of 0.54.
With A5U G9A A28C G46A U58A U60C the self-cleavage was 0.07.
A5U A18U U51C C81U showed a self-cleavage of 0.39.
Work on A5U A15G U26C C37U U43A U60G U72A yielded a self-cleavage of 0.05.
Variant A5U A35U A45C A65G U67A A77U has a self-cleavage of 0.15.
For A5U A47G U66G A77G U78C, the self-cleavage was 0.13.
A5U C34A U69C gave a self-cleavage of 0.28.
With A5U C11U C39U the self-cleavage was 0.57.
Variant A5U C40G A56C U60A has a self-cleavage of 0.5.
In the case of A5U G7A C40A, the self-cleavage is reported as 0.33.
A5U G9A A18U C38U G42U U78C gave a self-cleavage of 0.05.
With A5U A18C A21G U31G the self-cleavage was 0.41.
A5U C37G U69C gave a self-cleavage of 0.34.
Variant A5U C23U U51C A56G U58C has a self-cleavage of 0.32.
Work on A5U A21G A45G A47G yielded a self-cleavage of 0.42.
Variant A5U C38G U41C U51C U54C A65G U67C has a self-cleavage of 0.1.
With A5U C17U C59A U80C the self-cleavage was 0.2.
A5U C39A U69C U74C gave a self-cleavage of 0.11.
A5U G10U A35U A57G showed a self-cleavage of 0.07.
A5U A45G U78A gave a self-cleavage of 1.09.
A5U A28U U41C gave a self-cleavage of 0.9.
A5U A13U G42U U51A U58A U78C gave a self-cleavage of 0.12.
Variant A5U C29U A56G has a self-cleavage of 0.18.
A5U A20G U26A U66C gave a self-cleavage of 0.29.
Variant A5U A18G U26C G36C U76A has a self-cleavage of 0.
Work on A5U A15U U41C U43C G55C yielded a self-cleavage of 0.15.
With A5U A13U C23U C59U A75U the self-cleavage was 0.18.
Work on A5U A47G A57G yielded a self-cleavage of 0.67.
Work on A5U C44U U54G yielded a self-cleavage of 0.15.
A5U A57U U69C gave a self-cleavage of 0.23.
Work on A5U G19U U41C U51A yielded a self-cleavage of 0.21.
Work on A5U G8U A18G A20U U43G A45U yielded a self-cleavage of 0.11.
In the case of A5U A28G A56G U60A U76C, the self-cleavage is reported as 0.19.
Work on A5U A21G A28U A64G yielded a self-cleavage of 0.58.
Variant A5U A45U G73A U76A A77U has a self-cleavage of 1.46.
A5U A18G U26C G55A U67C U78C U80C gave a self-cleavage of 0.06.
A5U A45U C79G gave a self-cleavage of 0.76.
With A5U G6A A28G C40U U48C U76C the self-cleavage was 0.11.
In the case of A5U A65G A77U, the self-cleavage is reported as 0.82.
In the case of A5U A15U G30A A35U U72C, the self-cleavage is reported as 0.24.
Work on A5U A15U C23U A47G A56U U72G yielded a self-cleavage of 0.09.
In the case of A5U G10A A20G C23U U54A, the self-cleavage is reported as 0.28.
A5U A15U U49C A77G U78C showed a self-cleavage of 0.1.
Variant A5U A15G A20G C32U U54C U80A C81U has a self-cleavage of 0.34.
For A5U A35C U43A, the self-cleavage was 0.88.
A5U C12A A13C A18G gave a self-cleavage of 1.06.
A5U G6C G16A A45G A65G showed a self-cleavage of 0.07.
With A5U C32G U80C the self-cleavage was 0.11.
A5U A15G U51G U66C U78C showed a self-cleavage of 0.61.
In the case of A5U A13U A21G U49C U54C A64C, the self-cleavage is reported as 0.05.
With A5U A18U G30A U72C the self-cleavage was 0.09.
Variant A5U G10A A45G has a self-cleavage of 0.61.
A5U G8A C11U U41C U49A A77G gave a self-cleavage of 0.2.
With A5U A18G A35U C81U the self-cleavage was 0.34.
With A5U A18U U41A U66C U80A the self-cleavage was 0.14.
A5U C12U U25C U51A U66C U69A showed a self-cleavage of 0.15.
In the case of A5U C17U U31A U43C, the self-cleavage is reported as 0.25.
With A5U C17U A47G A56U U60C U72G the self-cleavage was 0.13.
A5U C17G A18U C29U U72A gave a self-cleavage of 0.24.
For A5U A21G A56G, the self-cleavage was 0.47.
Work on A5U C12U U72A U78C yielded a self-cleavage of 1.26.
A5U G16U A18G U25C U51C A65G U69C gave a self-cleavage of 0.05.
A5U A21C U58C showed a self-cleavage of 0.15.
Work on A5U C12U U25A yielded a self-cleavage of 0.37.
With A5U G10A G33A U49A the self-cleavage was 0.04.
In the case of A5U C44A A77G, the self-cleavage is reported as 0.51.
A5U G8A A56G U60C A75C gave a self-cleavage of 0.21.
For A5U A28G U49C U51A, the self-cleavage was 0.42.
With A5U A15G U54C U76C the self-cleavage was 0.94.
A5U A18G A20U U31C A57G showed a self-cleavage of 0.03.
A5U A18G A20G U72C gave a self-cleavage of 0.45.
In the case of A5U C17U G42U, the self-cleavage is reported as 0.27.
Work on A5U C12A C17U U51A A57G yielded a self-cleavage of 0.41.
Work on A5U C11G A13U U26A U69A yielded a self-cleavage of 0.11.
Variant A5U A18G A28G C62U has a self-cleavage of 0.1.
For A5U A18U U41A A64U, the self-cleavage was 0.25.
Variant A5U A15U A45G A56U U58C has a self-cleavage of 0.13.
A5U A28G U67A U74C gave a self-cleavage of 0.4.
In the case of A5U G24A C27A A35U A47U A56G, the self-cleavage is reported as 0.2.
Work on A5U A18G C34U U41C U43A U67C G70A yielded a self-cleavage of 0.07.
A5U A20U U26C U43C G61C U66C C81A showed a self-cleavage of 0.21.
Variant A5U A28G U51C U80C has a self-cleavage of 0.89.
A5U C40A A47G gave a self-cleavage of 0.31.
A5U C37U U60C A77G gave a self-cleavage of 0.21.
With A5U C23U U51C the self-cleavage was 0.28.
In the case of A5U A15U A21U U31C A57G U80C, the self-cleavage is reported as 0.24.
With A5U C29A A57G U58C the self-cleavage was 0.28.
A5U A47G U54C gave a self-cleavage of 1.06.
For A5U A15U U51A U67A U69C, the self-cleavage was 0.31.
Work on A5U A18G U54C yielded a self-cleavage of 0.6.
Work on A5U A15G A45G U54A U72C yielded a self-cleavage of 1.27.
With A5U C23G U60C A65G the self-cleavage was 0.11.
In the case of A5U C39A G61C C71A U76C, the self-cleavage is reported as 0.08.
A5U G9A U76C showed a self-cleavage of 0.26.
With A5U A21G U78C the self-cleavage was 0.63.
A5U A21G U26C G52U U54A showed a self-cleavage of 0.28.
For A5U C27A U60A U72C, the self-cleavage was 0.23.
Work on A5U A18G U51A A64U A77U yielded a self-cleavage of 0.28.
A5U A18G U31A A35C U69A gave a self-cleavage of 0.2.
With A5U A15G A18G U69C U78A the self-cleavage was 1.23.
Variant A5U A15C A28G C62A has a self-cleavage of 0.32.
For A5U G10A A45G U49C, the self-cleavage was 0.07.
A5U A28G G70U U74C showed a self-cleavage of 0.18.
A5U A20G C32A A35G U54A U78C showed a self-cleavage of 0.36.
A5U A21C G33A U43C A47G U69A gave a self-cleavage of 0.11.
For A5U A15G U41A A57G, the self-cleavage was 0.3.
Work on A5U A20G A28G yielded a self-cleavage of 0.6.
With A5U A18G G22U U41G U69C the self-cleavage was 0.09.
A5U G7C C40U U76A gave a self-cleavage of 0.26.
In the case of A5U A35U U60A, the self-cleavage is reported as 0.26.
Variant A5U A20U U41C G70A U72C has a self-cleavage of 0.13.
A5U C14U A64G showed a self-cleavage of 1.17.
In the case of A5U C38G C40G U48C, the self-cleavage is reported as 0.11.
With A5U A45G U48C the self-cleavage was 0.26.
A5U A15U A65U U67C gave a self-cleavage of 0.17.
Work on A5U A28U G63U yielded a self-cleavage of 1.11.
For A5U A21G U41A U66C, the self-cleavage was 0.06.
With A5U A21U A35G U43A the self-cleavage was 1.18.
With A5U A20G C62U the self-cleavage was 0.21.
A5U A20G U72C U76C U78C showed a self-cleavage of 1.
